The values that follow come from article PMC4336329 (PLoS ONE, 2015).

In all, about 310,000 compounds went through this assay and about 2,200 (0.71%) showed an effect of 50% or more. Effects have a minus sign here. The list shows a part of the results.

human ether-à-go-go-related gene (hERG) potassium channel, sequence (Q12809 whole entry, looked up): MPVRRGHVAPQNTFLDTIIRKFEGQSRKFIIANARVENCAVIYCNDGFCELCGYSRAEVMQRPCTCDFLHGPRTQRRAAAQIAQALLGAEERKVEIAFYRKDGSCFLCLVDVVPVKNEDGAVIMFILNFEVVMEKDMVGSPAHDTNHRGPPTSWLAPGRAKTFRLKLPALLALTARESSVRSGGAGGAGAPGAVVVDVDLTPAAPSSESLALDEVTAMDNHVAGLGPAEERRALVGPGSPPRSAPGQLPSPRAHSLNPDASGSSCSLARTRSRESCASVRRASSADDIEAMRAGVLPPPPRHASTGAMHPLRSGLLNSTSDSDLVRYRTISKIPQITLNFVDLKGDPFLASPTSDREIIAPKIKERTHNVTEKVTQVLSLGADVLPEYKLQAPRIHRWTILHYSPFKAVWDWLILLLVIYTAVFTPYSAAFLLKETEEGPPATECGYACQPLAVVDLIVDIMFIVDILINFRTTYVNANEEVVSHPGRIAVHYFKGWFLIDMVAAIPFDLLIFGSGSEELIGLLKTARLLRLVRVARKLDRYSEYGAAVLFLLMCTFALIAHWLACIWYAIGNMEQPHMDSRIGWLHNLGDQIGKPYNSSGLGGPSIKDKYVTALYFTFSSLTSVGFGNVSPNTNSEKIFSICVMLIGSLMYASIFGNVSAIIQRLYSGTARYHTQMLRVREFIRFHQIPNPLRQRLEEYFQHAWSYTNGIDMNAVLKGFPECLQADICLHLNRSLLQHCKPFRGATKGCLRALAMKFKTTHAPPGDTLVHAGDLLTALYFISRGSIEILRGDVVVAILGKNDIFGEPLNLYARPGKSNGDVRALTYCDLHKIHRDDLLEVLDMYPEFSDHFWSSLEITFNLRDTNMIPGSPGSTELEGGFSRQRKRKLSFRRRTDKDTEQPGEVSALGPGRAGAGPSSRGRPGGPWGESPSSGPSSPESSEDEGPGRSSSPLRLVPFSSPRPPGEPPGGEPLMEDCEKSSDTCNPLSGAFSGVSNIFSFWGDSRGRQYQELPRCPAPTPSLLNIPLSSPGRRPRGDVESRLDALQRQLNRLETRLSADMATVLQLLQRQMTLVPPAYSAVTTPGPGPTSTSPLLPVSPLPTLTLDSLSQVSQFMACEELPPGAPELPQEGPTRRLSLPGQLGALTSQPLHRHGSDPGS

The test has as its target human ether-à-go-go-related gene (hERG) potassium channel (human, UniProt Q12809). The test is described as follows: primary screen, population patch clamp on CHO cells stably expressing hERG.
For `COc1ccc(NS(=O)(=O)c2cccc(C(=O)OCC(=O)NC3CC3)c2)cc1`, the “hERG current change (%, negative = inhibition) at 1uM” value is 6.95%.
Next, `CNC(=O)/C(C#N)=C/c1c(N2CCN(C)CC2)nc2c(C)cccn2c1=O`: 13.7%; `COC(=O)C1=C(c2ccc(OC(F)(F)F)cc2)C[C@@H]2CC[C@H]1N2C(=O)N1CCCCC1`: -1.61%; `CCn1nccc1C(=O)Nc1ccc(Cl)cc1Cl`: 11.3%.
`CCOCCN(C=O)c1cccc(OC)c1`: the “hERG current change (%, negative = inhibition) at 1uM” value is 8.37%.
In the case of `CCC1CCCCN1C(=O)c1cc(COc2ccc(-n3cncn3)cc2)on1` (stereo not shown) it was -5.17%; in that of `COc1ccc([N+](=O)[O-])cc1N(CC(=O)NC1CCCCC1)S(C)(=O)=O`, 11.9%; in that of `Cc1cccc(NC(=O)C2CCN(S(=O)(=O)c3c(C)noc3/C=C/c3ccco3)CC2)n1`, 6.22%.
In the case of `COc1ccc(CNC(=O)c2cnc(C)cn2)cc1` it was 1.9%; in that of `O=c1[nH]c2ccccc2nc1/C=C(\O)c1cccs1`, 15.6%.
In the case of `COc1ccc(-c2cc(-c3ccc(F)cc3)nc(N3CCN(C)CC3)n2)cc1` it was -1.76%; in that of `OCCC1CN(Cc2cccn2-c2nccs2)CCN1Cc1ccc(F)c(F)c1` (stereo not shown), -85%.
On to `CC(CCc1ccc(O)cc1)N1CCC(Oc2ccc(C(=O)N3CCCC3)cc2)CC1` (stereo not shown), for which the “hERG current change (%, negative = inhibition) at 1uM” value is listed as -2.08%.
For the molecule `O=C(CN1C(=O)/C(=C/c2cccc(Br)c2)SC1=S)N1CCCC1`, the “hERG current change (%, negative = inhibition) at 1uM” value is 12.9%.
With `COC(=O)C1=C(C)NC2=C(C(=O)CCC2)C1c1cn(Cc2ccc(Br)cc2)nc1-c1ccccc1` (stereo not shown), the “hERG current change (%, negative = inhibition) at 1uM” value was 6.28%.
Next, `COc1cc([C@H]2[C@@H]3CCCC[C@]3(O)CCN2Cc2ccccc2F)ccc1O`: -4.34%; `CCC(=O)NNC(=O)c1cc(COc2cc(Cl)cc(Cl)c2)on1`: 17%.
For the molecule `COc1cc(NS(=O)(=O)c2ccc(F)cc2)c(OC)cc1NC(C)=O`, the “hERG current change (%, negative = inhibition) at 1uM” value is 10.1%.
Next, `COc1ccc(-c2noc(CCCC(=O)O)n2)cc1`: 0.0739%; `O=S(=O)(c1ccc(Br)cc1)c1cnc2ccccc2n1`: 13.3%.
Turning to `Nc1nc(O)c(N=Nc2ccc(S(N)(=O)=O)cc2)c(=O)[nH]1`, the “hERG current change (%, negative = inhibition) at 1uM” value worked out at 13.9%.
With `CCCCC(=O)Nc1ccc(C(=O)NCCc2ccc(S(N)(=O)=O)cc2)cc1`, the “hERG current change (%, negative = inhibition) at 1uM” value was determined as 14.4%.
In the case of `COc1cccc(CC2(CO)CCCN(Cc3ccccc3-c3ccco3)C2)c1` (stereo not shown), the “hERG current change (%, negative = inhibition) at 1uM” value is listed as -55.6%.
Next, `CCC(=O)OCC(=O)N=c1sccn1Cc1ccccc1Cl`: 2.94%; `O=C(NN1CCOCC1)c1ccc(Cl)c([N+](=O)[O-])c1`: 10.2%; `COc1cc(OC)cc(C(=O)Nc2sc3c(c2C(N)=O)CCC3)c1`: 20.3%.
Consider `O=C(NC1CCCCC1)N1CCc2ccccc21`, for which the “hERG current change (%, negative = inhibition) at 1uM” value is -5.2%.
Regarding `CCc1ccccc1NS(=O)(=O)c1ccc2c(c1)NC(=O)CC(=O)N2`, the “hERG current change (%, negative = inhibition) at 1uM” value is reported as 10.6%.
`O=C(Nc1ccccc1N1CCCCC1)c1cccc(F)c1`: the “hERG current change (%, negative = inhibition) at 1uM” value is recorded as 13.2%.
As to `COc1ccccc1CNC(=O)c1ccc(CNc2c(N3CCCC3)c(=O)c2=O)cc1`, the “hERG current change (%, negative = inhibition) at 1uM” value was 11.1%.
In the case of `CCCc1c(C(=O)N/N=C/c2ccc(OCc3ccccc3)c(OC)c2)nnn1-c1nonc1N` it was 20.7%.
`CCn1c(SCC(=O)NNC(=S)Nc2ccc(C)cc2)nnc1-c1ccc(Cl)cc1`: the “hERG current change (%, negative = inhibition) at 1uM” value is given as 10%.
As for `CCc1ccccc1NC(=O)CN(C)S(=O)(=O)c1ccc(-c2ccc(=O)[nH]n2)s1`, the “hERG current change (%, negative = inhibition) at 1uM” value is listed as -31.5%.
In the case of `O=C(Nn1cnc2ccccc2c1=O)c1ccc([N+](=O)[O-])cc1Cl` it was 12.3%.
Consider `Cc1cc(C)c(CN2CCC(n3nccc3NC(=O)C3CCCC3)CC2)cc1C`, for which the “hERG current change (%, negative = inhibition) at 1uM” value is recorded as -26.4%.
Next, `CN(C)c1ncc([N+](=O)[O-])cc1C(F)(F)F`: 16.9%; `COc1ccccc1-c1nc2ccc(Cl)cc2c(=O)n1O`: 6.14%; `CCOc1ccccc1N(CC)C(=O)c1ccc2c(=O)n3c(nc2c1)CCCCC3`: 7.02%.
Regarding `NC(=O)Nc1ccc(C(=O)OCC(=O)N(Cc2ccccc2)C2CCS(=O)(=O)C2)cc1` (stereo not shown), the “hERG current change (%, negative = inhibition) at 1uM” value was 23.8%.
`Nc1[nH]nc2nc(NCc3ccccc3)c3c(c12)CCN(Cc1ccccc1)C3`: the “hERG current change (%, negative = inhibition) at 1uM” value stood at 4.08%.
Consider `CCC(C)CCCCCCCCCCC(=O)O` (stereo not shown), for which the “hERG current change (%, negative = inhibition) at 1uM” value is recorded as 24.1%.
With `C=C(C)COc1ccc2c(CC)cc(=O)oc2c1`, the “hERG current change (%, negative = inhibition) at 1uM” value is 13.1%.
Turning to `CSc1cccc(NC(=S)N(CCCN2CCCC(C)C2)Cc2cccs2)c1` (stereo not shown), the “hERG current change (%, negative = inhibition) at 1uM” value was -24%.
For the molecule `CC(C)(C)c1ccc(C(=O)N2CCN(Cc3ccccc3)CC2)cc1`, the “hERG current change (%, negative = inhibition) at 1uM” value was 11%.
With `CCOc1ccc(S(=O)(=O)Nc2ccc(C(=O)N3CCCC3)cc2)cc1`, the “hERG current change (%, negative = inhibition) at 1uM” value turned out to be 8.52%.
Turning to `Cc1nn(Cc2cccc(C(=O)NN)c2)c(C)c1Cl`, the “hERG current change (%, negative = inhibition) at 1uM” value amounted to 12.9%.
In the case of `CCCS(=O)(=O)N1CCc2ccc(NC(=O)C3CCCO3)cc2C1` (stereo not shown), the “hERG current change (%, negative = inhibition) at 1uM” value turned out to be 0.153%.
For `Cc1cc(C(=O)Nc2ccc(C(=O)O)cc2)c(-c2ccccc2)o1`, the “hERG current change (%, negative = inhibition) at 1uM” value is -3.53%.
Turning to `CCCCc1ccccc1NC(=S)NC1CCCC1`, the “hERG current change (%, negative = inhibition) at 1uM” value stood at 14.6%.
For the molecule `Cc1nn2c(SCC(=O)c3cccs3)cc(C(C)(C)C)nc2c1-c1ccccc1`, the “hERG current change (%, negative = inhibition) at 1uM” value is given as 12.7%.
Regarding `CC1CN(S(=O)(=O)c2cccc(C(=O)N=c3sccn3C)c2)CC(C)O1` (stereo not shown), the “hERG current change (%, negative = inhibition) at 1uM” value was 9.18%.
Regarding `Cc1ccc(-n2nccc2-c2nn(-c3cccc(C(F)(F)F)c3)c(=O)n(C)c2=O)cc1`, the “hERG current change (%, negative = inhibition) at 1uM” value amounted to 14.4%.
For `COc1cc(/C=N/NC(=O)C(=O)NCc2cccnc2)ccc1O`, the “hERG current change (%, negative = inhibition) at 1uM” value is 1.29%.
Turning to `Cn1c(=O)c2sccc2n2c(CCCC(=O)N3CCN(c4ccccn4)CC3)nnc12`, the “hERG current change (%, negative = inhibition) at 1uM” value is on record as 14%.
In the case of `CCOC(=O)c1c(-c2ccc(-c3ccccc3)cc2)csc1NC(=O)C1C2CCC(O2)C1C(=O)O` (stereo not shown) it was 6.39%.
As for `COC(=O)c1cc(=O)n(Cc2ccccc2)c(=NCc2ccccc2)s1`, the “hERG current change (%, negative = inhibition) at 1uM” value is listed as 14.9%.
As to `O=C(Nc1cccc(C(F)(F)F)c1)NC1CCCCC1`, the “hERG current change (%, negative = inhibition) at 1uM” value is listed as 0.393%.
For the molecule `CCCCN(C(=O)c1cc(S(=O)(=O)N2CCOCC2)ccc1Cl)c1c(N)n(CC(C)C)c(=O)[nH]c1=O`, the “hERG current change (%, negative = inhibition) at 1uM” value is reported as -10.1%.
Next, `O=C(Nc1ccccc1N1CCCCC1)c1ccc(Cl)cc1`: 9.07%.
For `CCn1cc(S(=O)(=O)N2CCN(c3ccc(Cl)cc3)CC2)cn1`, the “hERG current change (%, negative = inhibition) at 1uM” value is recorded as 9.32%.
Next, `COc1cc(NC(=O)c2noc3c2CCC3)c(OC)cc1Cl`: 11%; `COc1ccc(C2=NC(C)(C)Cc3cc(OC)c(OC)cc32)cc1`: 3.52%; `CCOc1ccc(N(CC(=O)NC2CCCCC2)C(=O)CNC(=O)c2ccco2)cc1`: -5.99%.
For `NS(=O)(=O)c1cccc(NC(=O)Cn2cnc3ccccc3c2=O)c1`, the “hERG current change (%, negative = inhibition) at 1uM” value was 12.6%.
In the case of `CCC(C)NC(=O)C1CC(=O)N(CCc2ccc(F)cc2)C1` (stereo not shown) it was 13.6%.
For `CCc1nnc(NC(=O)c2c(O)c3c([nH]c2=O)CCCC3)s1`, the “hERG current change (%, negative = inhibition) at 1uM” value amounted to 12.2%.
In the case of `c1ccc(CSc2nnnn2-c2cccc3ccccc23)nc1` it was 8.68%; in that of `CC(=O)C1=C(O)C(=O)N(c2cccc(Br)c2)C1c1ccc(Br)cc1` (stereo not shown), 14.4%; in that of `CC(=O)N1CCN(c2nnnn2-c2ccccc2)CC1`, 2.28%.
Next, `COCCN(C(=O)COC(=O)c1ccc(C)s1)c1c(N)n(Cc2ccccc2)c(=O)[nH]c1=O`: 9.02%.
Regarding `O=C(c1ccc(S(=O)(=O)NCc2ccco2)cc1)N1CCN(Cc2ccc3c(c2)OCO3)CC1`, the “hERG current change (%, negative = inhibition) at 1uM” value was -11.3%.
With `Cc1nc(C(C)N(C)Cc2c(C(=O)N3CCCCC3)nc3c(C)cccn23)c(C)s1` (stereo not shown), the “hERG current change (%, negative = inhibition) at 1uM” value is -1.42%.
On to `Nc1nc2ccc(NC(=O)c3ccco3)cc2s1`, for which the “hERG current change (%, negative = inhibition) at 1uM” value came out at 10.9%.
As to `O=C(Nc1ccc2c(c1)CCC2)c1cnn2c1NC(c1ccco1)CC2C(F)(F)F` (stereo not shown), the “hERG current change (%, negative = inhibition) at 1uM” value is given as 4.97%.
Take `Cc1cc(N)n(-c2cc(C)c3ccccc3n2)n1`: the “hERG current change (%, negative = inhibition) at 1uM” value is on record as 9.59%.
On to `CCN(c1ccc(C(=O)CSc2nnc(C3CC3)n2C2CC2)cc1)S(C)(=O)=O`, for which the “hERG current change (%, negative = inhibition) at 1uM” value turned out to be 8.34%.
Regarding `CCN(CC)c1ccc(NC(=O)c2c(C)noc2C)cc1`, the “hERG current change (%, negative = inhibition) at 1uM” value is reported as 11.4%.
For the molecule `Cc1ccc(CN2CCCN(Cc3ccccc3C)S2(=O)=O)cc1`, the “hERG current change (%, negative = inhibition) at 1uM” value came to 15.6%.
Turning to `N#CCC(=O)N/N=C/c1ccc(Cl)cc1`, the “hERG current change (%, negative = inhibition) at 1uM” value was 11.2%.
Take `O=C(CN(c1cccc(C(F)(F)F)c1)S(=O)(=O)c1ccc(Cl)c([N+](=O)[O-])c1)NCc1ccccc1`: the “hERG current change (%, negative = inhibition) at 1uM” value is reported as 4.09%.
Turning to `CCOc1ccc(NC(=O)CCC(=O)NNC(=O)Nc2ccc(Cl)cc2)cc1`, the “hERG current change (%, negative = inhibition) at 1uM” value came to 14.3%.
On to `CCCC1=C(C(=O)OCC)C(c2ccncc2)n2ncnc2N1` (stereo not shown), for which the “hERG current change (%, negative = inhibition) at 1uM” value is reported as 1.9%.
Consider `COC(=O)C1=C(C)NC(=O)NC1c1ccccc1Cl` (stereo not shown), for which the “hERG current change (%, negative = inhibition) at 1uM” value is 18%.
Turning to `Cc1c(C(=O)N(Cc2ccccc2Cl)C2CCS(=O)(=O)C2)oc2ccccc12` (stereo not shown), the “hERG current change (%, negative = inhibition) at 1uM” value came out at 7.32%.
As for `Oc1ccc(Cl)cc1-c1cc(-c2cccc(Br)c2)n[nH]1`, the “hERG current change (%, negative = inhibition) at 1uM” value is recorded as 12.1%.
As to `O=[N+]([O-])c1ccc(Oc2cccnc2)nc1`, the “hERG current change (%, negative = inhibition) at 1uM” value worked out at 8.14%.
Regarding `CCCS(=O)(=O)c1nc(S(=O)(=O)c2ccc(C)cc2)c(N2CCN(CC)CC2)s1`, the “hERG current change (%, negative = inhibition) at 1uM” value was 0.548%.
Consider `CS(=O)(=O)O.Clc1cccc2c1Sc1ccccc1CC2N1CCNCC1` (stereo not shown), for which the “hERG current change (%, negative = inhibition) at 1uM” value is on record as -46.3%.
